97 compounds from PubChem BioAssay AID485344 (National Center for Advancing Translational Sciences (NCATS), 2010) can be followed below.

SMILES strings stand for the structures. In all, about 340,000 compounds went through this assay and about 6,900 (2%) were called active. Cut-off read from the data, not from the text of the source: active = inhibition above about 30%; inactive = below that, where a call was filed. The entries are a selection whose mix differs from that of the whole data set. The source gives no active or inactive call for entries shown without one.

Sequence of UniProt P14416 (P14416 whole entry, looked up): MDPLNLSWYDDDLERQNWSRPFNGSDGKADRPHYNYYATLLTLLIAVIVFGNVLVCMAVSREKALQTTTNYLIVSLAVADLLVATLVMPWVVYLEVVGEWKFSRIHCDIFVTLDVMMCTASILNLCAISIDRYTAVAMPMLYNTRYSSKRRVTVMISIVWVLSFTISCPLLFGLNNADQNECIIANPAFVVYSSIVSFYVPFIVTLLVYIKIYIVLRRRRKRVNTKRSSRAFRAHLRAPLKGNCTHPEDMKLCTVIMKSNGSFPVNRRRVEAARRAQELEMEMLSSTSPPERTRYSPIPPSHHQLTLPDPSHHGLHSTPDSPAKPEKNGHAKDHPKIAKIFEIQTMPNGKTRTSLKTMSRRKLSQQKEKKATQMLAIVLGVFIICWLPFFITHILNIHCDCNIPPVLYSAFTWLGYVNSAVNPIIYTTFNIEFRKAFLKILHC

In the test the target is D(2) dopamine receptor (Homo sapiens) (UniProt P14416). Kind of test: HTS Assay for Allosteric Antagonists of the Human D2 Dopamine Receptor: Primary Screen for Antagonists. Note: 0% is about no effect. The note with it: HEK293 TREx D2 cells, calcium flux, dopamine EC80; at 10 µM; stronger effect = higher value. In outline:
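Compounds are added to dye-loaded, induced HEK293 T-REx cells coupled to calcium release via D2; after a 3 min kinetic read an EC80 dopamine stimulus is given and fluorescence is recorded for 3 more min.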
Take `COC(=O)c1c(NC(=O)COc2ccccc2Cl)sc2c1CCC(C(C)(C)C)C2` (configuration not stated): the inhibition was -5.34%. Next, `Cc1cn2c(=O)cc(COC(=O)c3cccc(NC(=O)COc4ccc(Cl)cc4)c3)nc2s1`: -1.38%; `COC(=O)c1ccc(Cl)cc1NC(=O)N1CCC(CN2CCCC2)CC1`: 16.9%; `Cc1ccc(C(=O)c2cn(Cc3ccccc3F)c3cc4c(cc3c2=O)OCO4)cc1`: 18.3%. In the case of `N#C/C(=C\c1ccc(Br)cc1)c1nc(-c2cc3cc(Br)ccc3oc2=O)cs1` it was 0.376%; in that of `Cc1cccc(-n2ncc(C(=O)NCc3ccco3)c2C2CCN(C(=O)OC(C)(C)C)CC2)c1`, 11.9%; in that of `O=C(CSc1ncc2c(n1)-c1ccccc1N(Cc1ccc(F)cc1)S2(=O)=O)NCc1ccccc1`, 2.02%. Next, `CCc1nn(CC(=O)NCCN(CC)CC)c(=O)c2cc3occc3n12`: 8.25%; `Cc1nc2cccnc2n1C1CCN(S(=O)(=O)c2ccc(C(C)C)cc2)CC1`: -6.53%. Turning to `CCn1c(=O)c2cc(C(=O)N(C)c3cc(Cl)c(OC)cc3OC)sc2c2ccccc21`, the inhibition amounted to 0.383%. Next, `Cc1cccc(CNC(=O)CCCN2C(=O)COc3ccc(C)cc32)c1`: -4.14%. In the case of `Cc1ccc(N2CCN(C(=O)c3c(C)oc4nc(C)nc(N5CCCC5)c34)CC2)c(C)c1` it was -3.94%. In the case of `COc1cccc(NS(=O)(=O)c2ccc(Br)s2)c1` it was active: 33.7%; in that of `CCOC(=O)c1cccc(NC(=O)N2CC(CC)Oc3ccccc32)c1` (configuration not stated), -11.9%. For the compound `COc1ccc(NC(=O)c2sc3nc4c(cc3c2N)CCCCCC4)cc1Cl`, the inhibition is 4.05%.

Regarding `COc1cc(NS(=O)(=O)c2ccc(NC(=O)c3ccc(C(C)=O)cc3)cc2)nc(OC)n1`, the inhibition was 3.14%. Next, `CCOc1ccc(-c2cc(CCCC(=O)NCCc3ccc(OCC)c(OCC)c3)no2)cc1`: -27.3%; `CCCOC(=O)c1ccc(Nc2nc3ccccc3nc2-n2nc(C)cc2C)cc1`: 1.34%; `Cc1ccccc1NC(=O)c1ccc(F)c(S(=O)(=O)NC2CCCC2)c1`: -28.6%.

With `CCN1CCN(C(=O)c2ccc3c(c2)N(Cc2ccccc2F)C(=O)c2ccccc2S3(=O)=O)CC1`, the inhibition was -13.2%. With `O=C(CSc1nc(-c2ccco2)nc2cc(=O)[nH]n12)Nc1ccccc1F`, the inhibition is 3.2%. Consider `O=C(c1ccccc1Cl)N1CCN(CCc2ccccn2)CC1`, for which the inhibition was 17.1%. Next, `COc1ccc(NC(=O)CSc2nc(C)cc(C)c2C(=O)Nc2cccc(C)c2)cc1`: -9.69%. For the compound `COc1ccc2cc3cc(C(=O)Nc4ccccc4C)oc3nc2c1`, the inhibition turned out to be 1.72%. As to `COc1cccc(C(=O)Nc2ccccc2-c2nnc(-c3ccc(C(C)(C)C)cc3)o2)c1`, the inhibition amounted to 2.9%. In the case of `COc1cccc(N2CCN(C(=O)Cn3ncc4c5ccccc5n(C)c4c3=O)CC2)c1` it was -0.831%; in that of `Cc1cccc(-c2noc(-c3cc(-c4ccc(F)cc4)n[nH]3)n2)c1`, 0.121%; in that of `Cc1oc2ncn(C)c(=O)c2c1C(=O)NCc1ccccc1`, -12%.

Regarding `COC(=O)c1ccc(NC(=O)CN2CCN(c3ccccc3)CC2)cc1`, the inhibition was active: 95%. With `COc1cc(OC)cc(C(=O)Nc2nc(-c3nnn(-c4ccc(F)c(Cl)c4)c3C)ns2)c1`, the inhibition was 14.3%.

For `COc1cccc(CN2CCc3nc(N4CCN(C)CC4)ncc3C2)c1`, the inhibition is -4.24%. In the case of `CCOc1ccc(CCNC(=O)Cc2ccc(NC(=O)N3CCSc4ncccc43)cc2)cc1` it was 7.56%; in that of `COc1ccc(-n2nc(C(=O)N3CCN(c4cccc(C(F)(F)F)c4)CC3)c3c4ccccc4n(C)c3c2=O)cc1Cl`, 10.9%. Take `O=C(CSc1ccc(-c2cccs2)nn1)Nc1cccc(F)c1`: the inhibition amounted to 12.2%. Consider `COc1ccccc1N1CCN(c2ncnc3onc(C)c23)CC1`, for which the inhibition came to 13.4%. As to `COc1ccc(-c2cc(C)no2)cc1S(=O)(=O)N1CC(C)Oc2ccccc21` (configuration not stated), the inhibition is -2.67%. `O=C(NCCN1CCOCC1)c1cccc(Cl)c1`: the inhibition is active: 32.7%.

In the case of `COc1ccc(-n2c(SCC(=O)NCc3ccccc3)nc3n[nH]c(C)c3c2=N)cc1`, the inhibition worked out at 6.27%. Next, `CN(C(=O)c1oc(=O)c2ccccc2c1-c1ccccc1)c1cccc(Cl)c1`: 3.12%. In the case of `CCCn1c(=O)c2sccc2n2c(CCCC(=O)Nc3ccccc3F)nnc12`, the inhibition was determined as 0.124%.

Regarding `COc1cccc(N2CCN(C(=O)Cn3ncc4c(=O)oc5ccccc5c43)CC2)c1`, the inhibition was -6.39%. `COc1ccc(C(=O)/C=C/c2cc(OC)c(O)c(OC)c2)c(F)c1`: the inhibition was active: 33.3%. For `O=C1CC(c2cccc(F)c2)c2c(n3ncnc3[nH]c2=O)N1` (configuration not stated), the inhibition turned out to be 3.74%. Next, `CCOC(=O)Cn1c(=O)n(C2CCCCC2)c2nc(-c3cccc(C)c3)nc(C(N)=O)c21`: 6.52%; `O=C(CSc1nc(O)c(C/C=C/c2ccccc2)c(=O)[nH]1)Nc1cccc(F)c1`: -1.26%; `CC(C)(C)c1ccc(S(=O)(=O)N2CCN(C(=O)c3cc(-c4ccc(Br)cc4)n[nH]3)CC2)cc1`: 19.4%. In the case of `CCOc1ccc(NC(=O)c2noc3c2CSc2ccccc2-3)cc1` it was 6.11%; in that of `CCOCCc1nn2c(=O)cc(COC(=O)c3ccco3)nc2s1`, 9.35%; in that of `COc1cc(-c2noc(-c3ccc(N4CCCCC4)c([N+](=O)[O-])c3)n2)cc(OC)c1OC`, 11.4%.

With `COc1cccc(CNC(=O)c2nnc(Cc3ccc(Cl)cc3)o2)c1`, the inhibition is -5.58%.

As for `O=C(Nc1ccc2oc(-c3cc(Br)ccc3Cl)nc2c1)c1ccc2ccccc2c1`, the inhibition worked out at 19.3%. With `Cc1csc2nc(-c3cccc(NC(=O)c4ccccc4F)c3)cn12`, the inhibition was -22.2%. Regarding `COc1cc(-c2nc3cnccn3c2Nc2ccc(C(C)C)cc2)ccc1O`, the inhibition was -10.1%. In the case of `COc1cccc(CNC(=O)CCS(=O)(=O)c2cc3c4c(c2)CCN4C(=O)CC3)c1` it was 2.67%; in that of `CCc1ccc(Cn2c(CNS(=O)(=O)c3ccc(Cl)s3)nc3cccnc32)cc1`, -4.01%; in that of `COc1ccccc1-c1ccnc2c(-c3ccc(Br)cc3)c(C)nn12`, 12.7%.

For `Cc1ccccc1NC(=O)CSc1nnc(-c2cccc(Cl)c2)o1`, the inhibition worked out at 5.81%. In the case of `COc1ccc(CNC(=O)C(C)n2nc(C)c3sc4ccccc4c3c2=O)cc1OC` (configuration not stated), the inhibition is -5.06%. Take `CCOC(=O)c1cc2c(=O)n3ccccc3nc2n(CC2CCCO2)c1=NC(=O)c1ccccc1F` (configuration not stated): the inhibition was -6.24%. As for `Nc1nc(CN2CCN(c3ccccc3F)CC2)nc(N2CCCc3ccccc32)n1`, the inhibition is active: 78.7%. Next, `CCCOc1ccc(CNC(=O)Cn2c(=O)oc3ccccc32)cc1`: -12.6%. Next, `COc1cc(Cl)c(NC(=O)CN(C)S(=O)(=O)c2ccc3[nH]c4c(c3c2)CCCC4)c(OC)c1`: -13.5%; `COc1cccc(CNC(=O)c2cccc(NC(=O)c3nsc4ccccc34)c2)c1`: 5.61%; `COc1cccc(CNC(=O)CC(c2ccc(C)cc2)N2Cc3ccccc3C2=O)c1` (configuration not stated): 2.01%. Next, `CCCOc1ccc(C2C(=O)N(C3CCCCC3)CC(=O)N2CCC2=CCCCC2)cc1OC` (configuration not stated): 0.494%. Regarding `Cc1ccc(CNC(=O)c2cnn(-c3ccc(F)cc3F)c2C2CCN(C(=O)OC(C)(C)C)CC2)cc1`, the inhibition is -7.82%. Next, `COc1ccc(NS(=O)(=O)c2ccc3c(c2)n(C)c(=O)c(=O)n3C)cc1Cl`: -7.29%; `COc1ccc(N(CC(=O)N2CCN(c3ccc(F)cc3)CC2)S(=O)(=O)c2c(C)nn(C)c2C)cc1`: 9.64%. In the case of `CC(=O)c1c(C)oc2ccc(N(C(=O)c3ccncc3)S(=O)(=O)c3ccc(F)cc3C)cc12` it was -17%.

Turning to `Cc1cccc(C(=O)Nc2sc3c(c2C(=O)O)CCCC3)c1`, the inhibition was -2.96%. In the case of `OC(COc1ccc(F)cc1Cl)CN1CCc2ccccc2C1` (configuration not stated) it was active: 68.3%; in that of `Cc1cc(C)cc(NC(=O)CN(C)S(=O)(=O)c2ccc3c(c2)CCC(=O)N3)c1`, 15.9%; in that of `COc1ccc(C)cc1NC(=O)CSc1nc2ccccc2nc1N1CC(C)OC(C)C1` (configuration not stated), active: 38.1%. In the case of `CCOc1ccccc1NC(=O)c1nn(-c2ccc(OC)cc2)c(=O)c2c1c1ccccc1n2C` it was 1.48%. Turning to `O=C(c1cccc([N+](=O)[O-])c1)N1CCN(CCc2ccncc2)CC1`, the inhibition worked out at 4.21%.

As to `COc1cccc(-n2cc(C(=O)Nc3ccccc3C(N)=O)c3ccccc3c2=O)c1`, the inhibition is -7.58%. Next, `O=C(O)c1cc2c(cc1NC(=O)C1CCCC1)OCCO2`: active: 33.5%; `Cc1ccc(NC(=O)CN2C(=O)COc3ccc(S(=O)(=O)N4CCOCC4)cc32)c(Cl)c1`: -1.55%. Next, `CCOc1ccc(NC(=O)Cn2c(=O)n(Cc3ccccc3)c(=O)c3c4c(sc32)CN(C(C)=O)CC4)cc1`: 21.3%. Next, `CC(C)(C)c1ccc(S(=O)(=O)N2CCC(c3ccncc3)CC2)cc1`: -23.3%. `COc1ccccc1NC(=O)C1=C(C)Nc2ncnn2C1c1sccc1C` (configuration not stated): the inhibition was determined as 6.65%.

As for `Cc1ccccc1CNC(=O)Cn1cc2c(n1)-c1c(oc(C(=O)N3CCCC3)c1C)CC2`, the inhibition came out at 3.73%. In the case of `COc1ccc2nc(NC(=O)c3nc(SCc4cccc(C)c4)ncc3Cl)sc2c1`, the inhibition was -25.6%. As for `COc1ccc(OC)c(CNC(=O)CCC(=O)N2Cc3ccccc3Oc3ncccc32)c1`, the inhibition is -0.58%. For the compound `CNc1nc(Oc2ccc(=O)[nH]n2)nc(N2CCOCC2)n1`, the inhibition was -2.5%.

Turning to `COc1ccc(-n2cc(C(=O)Nc3ccccc3C#N)c3ccccc3c2=O)cc1`, the inhibition stood at 2.13%. Next, `CC(=O)Nc1c(C(=O)Nc2ccccc2F)oc2ccccc12`: 11.5%. Regarding `CCc1ccc(Nc2nc3c(S(=O)(=O)c4cccc(Cl)c4)nnn3c3ccsc23)cc1`, the inhibition was found to be 2.28%. Next, `CC1CCCCN1S(=O)(=O)c1ccc2[nH]c(=O)cc(C(=O)NCCc3ccc(Cl)cc3)c2c1` (configuration not stated): 4.21%; `COC(=O)c1c(NC(=O)c2c(OC)cccc2OC)sc2c1CCCC2`: -3.67%. For `CCN1CCc2nc(SCC(=O)Nc3ccc(OC)cc3)c(C#N)cc2C1`, the inhibition is active: 35.7%.

Consider `C=Cc1ccc(Cn2c(C(=O)OC)cc3sc(C)cc32)cc1`, for which the inhibition is -10.1%. Next, `COc1cccc(NC(=O)CC2Oc3ccccc3NC2=O)c1` (configuration not stated): 3.92%. In the case of `CC(=O)c1cccc(Nc2ncnc3c2cnn3-c2cccc(Cl)c2)c1` it was 12.5%; in that of `COc1cccc(NC(=O)c2oc3ccc(S(=O)(=O)N4CCOCC4)cc3c2C)c1`, -0.213%; in that of `CC(C)OCCCNC(=O)CN1C(=O)CSc2ccc(S(=O)(=O)N3CCOCC3)cc21`, 17.1%. In the case of `O=S(=O)(Nc1ccc(-c2ccc(N3CCCCCC3)nn2)cc1)c1ccc(C(F)(F)F)cc1` it was 1.19%.

As a reminder, the inhibition is the drop in the measured response relative to a control, in per cent.
